Results: patent US20240141364A1, “DRUG-REGULATABLE TRANSCRIPTIONAL REPRESSORS” (Senti Biosciences, Inc., priority 2021, published 2024)

B1: SB03759: degron-A(EAAAK)3A-ZF10-minKrab-AuSLDE; SEQ ID NO: 61 (AA), 62 (nucleic acid) (protein)
chain: FNVLMVHKRSHTGERPLQCEICGFTCRQKGNLLRHIKLHTGEKPFKCHLCNYACQRRDALAEAAAKEAAAKEAAAKADYKDHDGDYKDHDIDYKDDDDKMAPKKKRKVTCRSRPGERPFQCRICMRNFSRRHGLDRHTRTHTGEKPFQCRICMRNFSDHSSLKRHLRTHTGSQKPFQCRICMRNFSVRHNLTRHLRTHTGEKPFQCRICMRNFSDHSNLSRHLKTHTGSQKPFQCRICMRNFSQRSSLVRHLRTHTGEKPFQCRICMRNFSESGHLKRHLRTHLRGSGGGGSGGTRTLVTFKDVFVDFTREEWKLLDTAQQIVYRNVMLENYKNLVSLGY
B2: SB04397: all E. coli cod opt: d913-A(EAAAK)3A-ZF10-1-minKrab-BFP-2x(AuSLDE); SEQ ID NO: 65 (AA), 66 (nucleic acid) (protein)
chain: FNVLMVHKRSHTGERPLQCEICGFTCRQKGNLLRHIKLHTGEKPFKCHLCNYACQRRDALAEAAAKEAAAKEAAAKADYKDHDGDYKDHDIDYKDDDDKMAPKKKRKVTCRSRPGERPFQCRICMRNFSRRHGLDRHTRTHTGEKPFQCRICMRNFSDHSSLKRHLRTHTGSQKPFQCRICMRNFSVRHNLTRHLRTHTGEKPFQCRICMRNFSDHSNLSRHLKTHTGSQKPFQCRICMRNFSQRSSLVRHLRTHTGEKPFQCRICMRNFSESGHLKRHLRTHLRGSGGGGSGGTRTLVTFKDVFVDFTREEWKLLDTAQQIVYRNVMLENYKNLVSLGYGGGGSGGTMSELIKENMHMKLYMEGTVDNHHFKCTSEGEGKPYEGTQTMRIKVVEGGPLPFAFDILATSFLYGSKTFINHTQGIPDFFKQSFPEGFTWERVTTYEDGGVLTATQDTSLQDGCLIYNVKIRGVNFTSNGPVMQKKTLGWEAFTETLYPADGGLEGRNDMALKLVGGSHLIANIKTTYRSKKPAKNLKMPGVYYVDYRLERIKEANNETYVEQHEVAVARYCDLPSKLGHKLN
B3: SB03936: degron-A(EAAAK)3A-HDAC4-ZF10; SEQ ID NO: 63 (AA), 64 (nucleic acid) (protein)
chain: FNVLMVHKRSHTGERPLQCEICGFTCRQKGNLLRHIKLHTGEKPFKCHLCNYACQRRDALAEAAAKEAAAKEAAAKASSQSHPDGLSGRDQPVELLNPARVNHMPSTVDVATALPLQVAPSAVPMDLRLDHQFSLPVAEPALREQQLQQELLALKQKQQIQRQILIAEFQRQHEQLSRQHEAQLHEHIKQQQEMLAMKHQQELLEHQRKLERHRQEQELEKQHREQKLQQLKNKEKGKESAVASTEVKMKLQEFVLNKKKALAHRNLNHCISSDPRYWYGKTQHSSLDQSSPPQSGVSTSYNHPVLGMYDAKDDFPLRKTASEPNLKLRSRLKQKVAERRSSPLLRRKDGPVVTALKKRPLDVTDSACSSAPGSGPSSPNNSSGSVSAENGIAPAVPSIPAETSLAHRLVAREGSAAPLPLYTSPSLPNITLGLPATGPSAGTAGQQDTERLTLPALQQRLSLFPGTHLTPYLSTSPLERDGGAAHSPLLQHMVLLEQPPAQAPLVTGLGALPLHAQSLVGADRVSPSIHKLRQHRPLGRTQSAPLPQNAQALQHLVIQQQHQQFLEKHKQQFQQQQLQMNKIIPKPSEPARQPESHPEETEEELREHQALLDEPYLDRLPGQKEAHAQAGVQVKQEPIESDEEEAEPPREVEPGQRQPSEQELLFRQQALLLEQQRIHQLRNYQASMEAAGIPVSFGGHRPLSRAQSSPASATFPVSVQEPPTKPRFTTGLVYDTLMLKHQCTCGSSSSHPEHAGRIQSIWSRLQETGLRGKCECIRGRKATLEELQTVHSEAHTLLYGTNPLNRQKLDSKKLLGSLASVFVRLPCGGVGVDSDTIWNEVHSAGAARLAVGCVVELVFKVATGELKNGFAVVRPPGHHAEESTPMGFCYFNSVAVAAKLLQQRLSVSKILIVDWDVHHGNGTQQAFYSDPSVLYMSLHRYDDGNFFPGSGAPDEVGTGPGVGFNVNMAFTGGLDPPMGDAEYLAAFRTVVMPIASEFAPDVVLVSSGFDAVEGHPTPLGGYNLSARCFGYLTKQLMGLAGGRIVLALEGGHDLTAICDASEACVSALLGNELDPLPEKVLQQRPNANAVRSMEKVMEIHSKYWRCLQRTTSTAGRSLIEAQTCENEEAETVTAMASLSVGVKPAEKRPDEEPMEEEPPLGGGGSGGTDYKDHDGDYKDHDIDYKDDDDKMAPKKKRKVTCRSRPGERPFQCRICMRNFSRRHGLDRHTRTHTGEKPFQCRICMRNFSDHSSLKRHLRTHTGSQKPFQCRICMRNFSVRHNLTRHLRTHTGEKPFQCRICMRNFSDHSNLSRHLKTHTGSQKPFQCRICMRNFSQRSSLVRHLRTHTGEKPFQCRICMRNFSESGHLKRHLRTHLRGS

Assays:
Format in all cases: cell-based
[1] = test system: mCherry linked to an ITM-responsive promoter in U87-MG reporter cells; test: mCherry reporter expression with N-terminal or C-terminal degron repressors, with or without pomalidomide (FACS); details: no drug vs 1 μM pomalidomide; mCherry gMFI; FIG. 6A
Source text: A reporter cell line was produced as described in Example 2. Reporter cells were transduced (50,000 cells/transduction) with lentivirus (50,000 pg each, as titered by p24 assay) encoding constructs either having the degron N-terminal to the inducible transcription modulator (ITM) (Table 8) or having the degron C-terminal to the ITM (Table 9). Constructs SB03758 and SB03759 as described in Example 2 were also included in this experiment. Each construct format is described from 5′ to 3′ (ORF from N to C terminus).
On day 2 following transduction, cells transduced with each construct were incubated either in the presence of 1 μM pomalidomide or in the absence of the drug. On day 5 of drug treatment, cells were assayed by Fluorescence-Activated Cell Sorting (FACS) for mCherry expression. The geometric mean fluorescent intensity (MFI) of mCherry for each construct having the degron at the N-terminus is shown in FIG. 6A. The fold difference between the geometric MFI of mCherry for the no drug condition versus the pomalidomide treatment condition for each construct having the degron at the N-terminus was calculated as shown in FIG. 6B. […] The fold difference between the geometric MFI of mCherry for the no drug condition versus the pomalidomide treatment condition for each construct having the degron at the C-terminus was calculated as shown in FIG. 7B.

[2] = test system: mCherry linked to an ITM-responsive promoter in U87-MG reporter cells; test: mCherry reporter expression in reporter cells transduced with degron-linked repressors, with or without pomalidomide (FACS)
Source text: A reporter cell line was produced by transducing U87-MG cells with lentivirus encoding mCherry linked to an ITM-responsive promoter of SEQ ID NO: 56 including a EF1a core promoter sequence with a zinc finger binding domain composed of four ZF10-1 binding sites upstream of the core promoter sequence.
A reporter cell line was produced by transducing U87-MG cells with lentivirus encoding mCherry linked to an ITM-responsive promoter of SEQ ID NO: 56 including an EF1a core promoter sequence with a zinc finger binding domain composed of four ZF10-1 binding sites upstream of the core promoter sequence. Reporter cells were transduced (50,000 cells/transduction) with lentivirus (50,000 pg each, as titered by p24 assay) encoding each construct as shown in Table 6. Each construct format is described from 5′ to 3′ (ORF from N to C terminus). Constructs SB03757 and SB03760 include a minKrab repression domain that is codon optimized for E. coli, and constructs SB03758 and SB03761. For constructs SB03758 and SB03761, the entire construct was codon optimized for E. coli.
On day 2 following transduction, cells were incubated either in the presence of 1 μM pomalidomide or in the absence of the drug. On day 5 of drug treatment, cells were assayed by Fluorescence-Activated Cell Sorting (FACS) for mCherry expression.

[3] = test system: IL-12 linked to an ITM-responsive promoter (SB04640) in U87MG cells; test: Kinetics of IMiD ON switch, IL-12 in supernatant after pomalidomide or iberdomide; details: for IL-12 expression levels in supernatant over time: SB04640 reporter plus repressor vs reporter only control
Procedure: (§1) 50,000 U87MG cells were seeded in 24 w dish 18-14 hours before transduction then transduced with 25 k pg of degron-linked repressor (SB03759, SB03936, or SB04397) and 25 k pg of IL12 reporter construct (SB04640) (virus was quantified by p24 ELISA). A construct encoding IL-12 linked to an ITM-responsive promoter including an EFS promoter sequence with a zinc finger binding domain composed of four ZF10-1 binding sites upstream of the EFS promoter sequence (SEQ ID NO: 67) was used as a reporter.
For kinetic experiment studies, transduced cells were seeded 100 k cells per well in 24 w plate. Then 24 hours later, supernatant was replaced with drug-free or 1 uM Pomalidomide or Iberdomide. Supernatant was harvested at indicated elapsed times (3 hours, 6 hours, 12 hours, 16 hours and 24 hours) post drug treatment.

[4] = test system: IL-12 linked to an ITM-responsive promoter (SB04640) in U87MG cells; test: IMiD-ON regulated IL-12 expression, pomalidomide titration, IL12 p70 ELISA of supernatant; details: for IL-12 expression upon addition of the IMiD: drug-free vs pomalidomide 1 nM, 10 nM, 100 nM, 1 uM, FIG. 8
Procedure: as §1
For Pomalidomide titration experiments, two days post transduction, cells were split into drug free media or 1 uM pomalidomide conditions. Then 3 days later, 100 k cells of each condition were seeded into a 24 w plate and 24 hours later, supernatant was collected and assayed using IL12 p70 ELISA kit (#D1200 R&D Systems) to quantity IL-12.

Molecule	repression of reporter expression and its release by drug [1]	drug-induced release of repression (fold difference of geometric MFI of mCherry, no drug vs pomalidomide) ([2]; 1 μM pomalidomide, day 5 of drug treatment, FIG. 3)	drug-dependent regulation of repression (mCherry histogram plots) ([2]; presence or absence of 1 μM pomalidomide, FIGS. 4A & 4B)	time to detected expression of IL-12 after adding IMiDs ([3]; 1 uM IMiD) [h]	IL-12 expression levels in supernatant over time ([3]; 1 uM Iberdomide, FIG. 9 bottom panel)	IL-12 expression levels normalized to SB04640 reporter only ([3]; 1 uM Pomalidomide, hours 12 and 16, FIG. 10)	IL-12 expression levels in supernatant over time ([3]; 1 uM pomalidomide, FIG. 9 top panel)	Pomalidomide concentration at which IL-12 expression recovers to reporter only levels ([4]; IL-12 as fraction of constitutive IL-12 reporter, FIG. 8 bottom panel) [nM]	IL-12 expression upon addition of the IMiD [4]
B1	reversibility of repression	drug-induced release of repression was possible	regulatable in a drug-dependent manner	–	–	–	–	–	–
B2	–	–	–	≤ 24	increased	increased IL-12 expression	increased	≥ 10	increased
B3	–	–	–	–	–	–	–	–	increased
